Laboratory results from the supplement of paper PMC10126150.
Values marked as one replicate rest on one cluster of the flow cell; about a third of the high ones do not repeat.

test system: ATP; experiment: switch fluorescence ratio, 500 uM ATP over buffer (Cy3 cluster intensity, sum of 5 cycles each) (fold (ratio)); higher = stronger signal-on switching upon ATP binding; sequences stand for … in TCGTCGGCAGCGTCAGATGTGTATAAGAGACAGTTTTTTTTTTTTTTTTTTTTTTTTT…TC; settings: aptamer strand: ATP DNA aptamer (quencher-CACCTGGGGGAGTATTGCGGAGGAAGG + anchor), 100 nM annealed; ATP concentration: 500 uM; one replicate
Summary of the method: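 Cy3-labelled switching-strand clusters on a modified Illumina MiSeq flow-cell were annealed to 100 nM quencher-labelled ATP aptamer and imaged first in selection buffer, then after 15 min with 500 uM ATP at 22 °C. NaOH stripping and re-annealing separated each of five buffer/ATP cycles, and clusters outside 100-1000 RFU were excluded. The fluorescence ratio sums target-cycle Cy3 intensity over buffer-cycle Cy3 intensity per cluster and averages it per switch-domain sequence.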
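Further: ATP exposure 15 min at 22 °C before imaging.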

Q: How did the switch fluorescence ratio turn out when GGATGAAAGA was run?
A: 1

Q: For GGATGACGAA, which switch fluorescence ratio is on record?
A: 0.996

Q: How did the switch fluorescence ratio turn out when GGATGAGAG was run?
A: 0.979

Q: For GGATGATATA, which switch fluorescence ratio is on record?
A: 1.04

Q: With GGATGATGTG as the sequence, how does the switch fluorescence ratio read?
A: 0.994

Q: Which switch fluorescence ratio does the source give for GGATGCAGTG here?
A: 1.08

Q: With GGATGCTAGC as the sequence, how does the switch fluorescence ratio read?
A: 1.04

Q: With GGATGCTGG as the sequence, how does the switch fluorescence ratio read?
A: 0.943

Q: GGATGGACCG was tested. Which switch fluorescence ratio did it give?
A: 1.08

Q: How did the switch fluorescence ratio turn out when GGATGGACGT was run?
A: 0.992

Q: How did the switch fluorescence ratio turn out when GGATGGCCCA was run?
A: 0.953

Q: With GGATGGGAAT as the sequence, how does the switch fluorescence ratio read?
A: 0.989

Q: With GGATGTAAAT as the sequence, how does the switch fluorescence ratio read?
A: 0.978

Q: For GGATGTCTTA, which switch fluorescence ratio is on record?
A: 0.977

Q: For GGATGTGCTA, which switch fluorescence ratio is on record?
A: 0.982

Q: With GGATGTTAGG as the sequence, how does the switch fluorescence ratio read?
A: 0.994

Q: Which switch fluorescence ratio does the source give for GGATGTTGGC here?
A: 1.03

Q: GGATTAGAAG was tested. Which switch fluorescence ratio did it give?
A: 1.03

Q: For GGATTATAGA, which switch fluorescence ratio is on record?
A: 0.971

Q: How did the switch fluorescence ratio turn out when GGATTATCAT was run?
A: 0.961

Q: Which switch fluorescence ratio does the source give for GGATTCCTGT here?
A: 0.992

Q: With GGATTCGACA as the sequence, how does the switch fluorescence ratio read?
A: 0.993

Q: With GGATTCGGGC as the sequence, how does the switch fluorescence ratio read?
A: 1.01

Q: GGATTCGGTA was tested. Which switch fluorescence ratio did it give?
A: 1.01

Q: How did the switch fluorescence ratio turn out when GGATTCTAAG was run?
A: 0.98

Q: For GGATTGCA, which switch fluorescence ratio is on record?
A: 1.01

Q: For GGATTGGATA, which switch fluorescence ratio is on record?
A: 0.985

Q: Which switch fluorescence ratio does the source give for GGATTGTGGA here?
A: 0.98

Q: Which switch fluorescence ratio does the source give for GGATTTAAAC here?
A: 0.978

Q: With GGCAAACAAG as the sequence, how does the switch fluorescence ratio read?
A: 1.04

Q: GGCAACCAGG was tested. Which switch fluorescence ratio did it give?
A: 2.02

Q: For GGCAAGCCGT, which switch fluorescence ratio is on record?
A: 1

Q: For GGCACAACAT, which switch fluorescence ratio is on record?
A: 1.01

Q: With GGCACAAGC as the sequence, how does the switch fluorescence ratio read?
A: 1.04

Q: How did the switch fluorescence ratio turn out when GGCACAATTT was run?
A: 0.958

Q: GGCACATCAC was tested. Which switch fluorescence ratio did it give?
A: 1.27

Q: For GGCACATTGC, which switch fluorescence ratio is on record?
A: 1.04

Q: How did the switch fluorescence ratio turn out when GGCACATTGT was run?
A: 0.988

Q: GGCACCCGGC was tested. Which switch fluorescence ratio did it give?
A: 1.03

Q: With GGCACCGGCA as the sequence, how does the switch fluorescence ratio read?
A: 1.03

Q: How did the switch fluorescence ratio turn out when GGCACGAGCG was run?
A: 1.03

Q: For GGCACGCAGG, which switch fluorescence ratio is on record?
A: 1.03

Q: With GGCACTTAGT as the sequence, how does the switch fluorescence ratio read?
A: 1.02

Q: GGCAGATGAT was tested. Which switch fluorescence ratio did it give?
A: 1.04

Q: How did the switch fluorescence ratio turn out when GGCAGGAGG was run?
A: 0.994

Q: With GGCAGGATGA as the sequence, how does the switch fluorescence ratio read?
A: 1.01

Q: Which switch fluorescence ratio does the source give for GGCAGGTACG here?
A: 0.957

Q: How did the switch fluorescence ratio turn out when GGCAGGTGAG was run?
A: 1.21

Q: For GGCAGTACTT, which switch fluorescence ratio is on record?
A: 1.42

Q: GGCAGTAGCA was tested. Which switch fluorescence ratio did it give?
A: 0.988

Q: For GGCAGTCCAC, which switch fluorescence ratio is on record?
A: 1.02

Q: With GGCATCAAGA as the sequence, how does the switch fluorescence ratio read?
A: 0.976

Q: Which switch fluorescence ratio does the source give for GGCATCCACG here?
A: 1.05

Q: GGCATGAAGG was tested. Which switch fluorescence ratio did it give?
A: 1.03

Q: How did the switch fluorescence ratio turn out when GGCATGGGGA was run?
A: 0.988

Q: For GGCATTAGTG, which switch fluorescence ratio is on record?
A: 1.02

Q: GGCATTTGTT was tested. Which switch fluorescence ratio did it give?
A: 0.93

Q: GGCCAAATTT was tested. Which switch fluorescence ratio did it give?
A: 1.01

Q: With GGCCAAGACT as the sequence, how does the switch fluorescence ratio read?
A: 1.06

Q: How did the switch fluorescence ratio turn out when GGCCAGAGGC was run?
A: 0.978

Q: How did the switch fluorescence ratio turn out when GGCCATATGC was run?
A: 1.04

Q: Which switch fluorescence ratio does the source give for GGCCATCCTG here?
A: 0.984

Q: For GGCCATTAAA, which switch fluorescence ratio is on record?
A: 0.981

Q: How did the switch fluorescence ratio turn out when GGCCCAGCGG was run?
A: 1.04

Q: For GGCCCCAGGG, which switch fluorescence ratio is on record?
A: 1.44

Q: For GGCCCCCTTT, which switch fluorescence ratio is on record?
A: 1.03

Q: How did the switch fluorescence ratio turn out when GGCCCCGCCA was run?
A: 1.01

Q: For GGCCCCTAGA, which switch fluorescence ratio is on record?
A: 0.993

Q: Which switch fluorescence ratio does the source give for GGCCCGGAG here?
A: 1.07

Q: For GGCCCGGTAC, which switch fluorescence ratio is on record?
A: 1.66

Q: For GGCCCGTAGC, which switch fluorescence ratio is on record?
A: 1.13

Q: Which switch fluorescence ratio does the source give for GGCCCTAAGA here?
A: 0.969

Q: For GGCCCTTATG, which switch fluorescence ratio is on record?
A: 0.992

Q: How did the switch fluorescence ratio turn out when GGCCGAAATT was run?
A: 1.02

Q: Which switch fluorescence ratio does the source give for GGCCGAATCG here?
A: 1.01

Q: Which switch fluorescence ratio does the source give for GGCCGATACG here?
A: 1.03

Q: For GGCCGATCAA, which switch fluorescence ratio is on record?
A: 1.02

Q: GGCCGCATTT was tested. Which switch fluorescence ratio did it give?
A: 1.54

Q: With GGCCGGCCGG as the sequence, how does the switch fluorescence ratio read?
A: 1.01

Q: Which switch fluorescence ratio does the source give for GGCCGGGCTT here?
A: 1.01

Q: Which switch fluorescence ratio does the source give for GGCCGTATAG here?
A: 1.05

Q: With GGCCGTGGCC as the sequence, how does the switch fluorescence ratio read?
A: 1.04

Q: With GGCCTAGCTT as the sequence, how does the switch fluorescence ratio read?
A: 0.999

Q: How did the switch fluorescence ratio turn out when GGCCTCTATA was run?
A: 1.04

Q: GGCCTGCTGC was tested. Which switch fluorescence ratio did it give?
A: 0.999

Q: GGCCTGGACT was tested. Which switch fluorescence ratio did it give?
A: 0.987

Q: Which switch fluorescence ratio does the source give for GGCCTTGGCT here?
A: 1.03

Q: With GGCGAAAGGC as the sequence, how does the switch fluorescence ratio read?
A: 1.1

Q: For GGCGAACGGG, which switch fluorescence ratio is on record?
A: 1.07

Q: GGCGAGGCGG was tested. Which switch fluorescence ratio did it give?
A: 0.98

Q: With GGCGAGTTCT as the sequence, how does the switch fluorescence ratio read?
A: 0.984

Q: Which switch fluorescence ratio does the source give for GGCGCACAGA here?
A: 0.996

Q: Which switch fluorescence ratio does the source give for GGCGCCGTAA here?
A: 1.03

Q: How did the switch fluorescence ratio turn out when GGCGCCTTG was run?
A: 1.3

Q: How did the switch fluorescence ratio turn out when GGCGCGGGCA was run?
A: 0.996

Q: For GGCGCTTAA, which switch fluorescence ratio is on record?
A: 0.974

Q: GGCGGAGCGG was tested. Which switch fluorescence ratio did it give?
A: 0.98

Q: GGCGGAGTTT was tested. Which switch fluorescence ratio did it give?
A: 1

Q: Which switch fluorescence ratio does the source give for GGCGGCCAGC here?
A: 1.02

Q: GGCGGCTGCC was tested. Which switch fluorescence ratio did it give?
A: 1.03

Q: With GGCGTATGCG as the sequence, how does the switch fluorescence ratio read?
A: 1.04
